# Reference: PubChem BioAssay AID588342 (National Center for Advancing Translational Sciences (NCATS), 2011)
# The whole screen tested about 360,000 compounds, of which about 25,000 (6.9%) were called active. This list was built around the results that the source calls inconclusive (neither active nor inactive); the mix of calls is not that of the screen. Calls follow the shape of the dose curve; as a rule, active = well fitted inhibition curve with a large enough effect; inconclusive = small, poorly fitted or top-dose-only effect; inactive = flat fitted curve, though single readings scatter. A potency beside an inconclusive call is a rough fit, not a confirmed value.
# Molecular target: Luciferin 4-monooxygenase (Photinus pyralis) (UniProt P08659)
# Assay: qHTS profiling assay for firefly luciferase inhibitor/activator using purifed enzyme and Km concentrations of substrates (counterscreen for miR-21 project); also: nearly all actives have a fitted effect of over 55% in size
# Conditions: purified FLuc, luminescence inhibition; series mostly up to 57.5 µM
# How it was run: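 Biochemical qHTS of compounds, final roughly 60 µM downward over six points, against 10 nM purified firefly luciferase using Km concentrations of substrates (10 uM D-luciferin, 10 uM ATP) in Tris acetate pH 7.5 buffer; luminescence output.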
# Potency is read from the fitted curve at half-maximal effect; tags tell the direction and shape of the fitted curve.
# Sequence of UniProt P08659 (P08659 whole entry, looked up): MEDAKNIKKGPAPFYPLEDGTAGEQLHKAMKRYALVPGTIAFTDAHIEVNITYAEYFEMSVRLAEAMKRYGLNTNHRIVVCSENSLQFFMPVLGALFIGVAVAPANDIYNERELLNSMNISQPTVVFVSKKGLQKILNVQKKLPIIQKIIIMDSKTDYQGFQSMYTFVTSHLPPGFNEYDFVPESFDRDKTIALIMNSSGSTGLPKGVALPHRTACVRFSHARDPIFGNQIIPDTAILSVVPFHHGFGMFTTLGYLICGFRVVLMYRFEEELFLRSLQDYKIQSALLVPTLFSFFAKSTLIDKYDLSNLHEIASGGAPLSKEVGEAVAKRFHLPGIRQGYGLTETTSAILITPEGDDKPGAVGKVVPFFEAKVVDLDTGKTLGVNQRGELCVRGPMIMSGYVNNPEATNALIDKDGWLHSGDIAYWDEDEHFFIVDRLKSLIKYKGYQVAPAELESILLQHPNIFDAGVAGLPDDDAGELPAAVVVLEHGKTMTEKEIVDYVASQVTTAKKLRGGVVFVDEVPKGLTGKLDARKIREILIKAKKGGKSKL
row,SMILES,Potency
1,CCN(CC)CCNC(=O)c1ccc(NC(=O)c2cc(-c3ccncc3)nc3ccccc23)cc1,inactive
2,O=C(Nc1cccc(Cl)c1)Nc1nc(-c2ccccc2)cs1,inactive
3,CCOC(=O)/C(C#N)=C/c1ccc(N2CCCCC2)cc1,active: 2.69 µM
4,COc1ccc2ccccc2c1C1CC(=O)N2CN(C)CSC2=C1C#N (stereo not drawn),"inconclusive: 8.49 µM [inhibitor, partial curve]"
5,CCn1nc(C)c(/C=N/NC(=O)c2c[nH]c3ccccc23)c1C,"inconclusive: 5.36 µM [inhibitor, partial curve, poor fit]"
6,CC(C)(C)c1ccc(C(=O)NC(=S)N2CCCCCC2)cc1,"inconclusive: 26.9 µM [inhibitor, single point]"
7,O=C(CSc1ncnc2nc[nH]c12)c1ccc2ccccc2c1,"inconclusive: 26.9 µM [inhibitor, single point]"
8,CCc1ccc(/C=C2/Sc3ccccc3N(CC(=O)NCCCN3CCOCC3)C2=O)cc1,active: 19 µM
9,O=C(O)Cc1ccc(Oc2ncc(C(F)(F)F)cc2Cl)cc1,"inconclusive: 37.9 µM [inhibitor, partial curve, poor fit]"
10,Cc1cccc(CN2CCN(CC(=O)O)C2=O)c1,"inconclusive: 30.1 µM [inhibitor, partial curve, poor fit]"
11,COc1ccc(-n2c(C)cc(-c3csc(N)n3)c2C)cc1,"inconclusive: 33.8 µM [inhibitor, single point]"
12,COc1ccc(CCNC(=O)CCc2c(C)nc3nc(C)nn3c2C)cc1OC,inactive
13,COCC(=O)Nc1ccc(OCc2ccccc2)cc1,"inconclusive: 15.1 µM [inhibitor, single point]"
14,COc1cc(OC)c(NC(=O)Nc2ccccc2OCc2cc(=O)n3cc(C)ccc3n2)cc1Cl,"inconclusive: 9.53 µM [inhibitor, partial curve]"
15,COc1ccc(C(=O)COC(=O)c2ccccc2C(=O)N(C)c2ccccc2)c(OC)c1,"inconclusive: 26.9 µM [inhibitor, single point]"
16,Cc1cccc(C2NC(=O)c3c(sc(C)c3C)N2)c1O (stereo not drawn),"inconclusive: 9.53 µM [inhibitor, partial curve]"
17,CC(=O)c1cccc(NC(=O)c2ccc3c(c2)C(=O)N(Cc2cccnc2)C3=O)c1,"inconclusive: 21.3 µM [inhibitor, partial curve, poor fit]"
18,Cn1ccnc1C(O)c1ccc(OCc2ccccc2)cc1 (stereo not drawn),"inconclusive: 37.9 µM [inhibitor, partial curve, poor fit]"
19,CCOc1cc(/C=C2\N=C3CCCCCN3C2=O)ccc1O,"inconclusive: 23.9 µM [inhibitor, single point]"
20,CC(=O)c1ccc(NC(=O)CSc2n[nH]c(-c3cccnc3)n2)cc1,"inconclusive: 37.9 µM [inhibitor, partial curve, poor fit]"
21,O=C(c1cc(-c2cccs2)on1)N1CCCCC1,active: 23.9 µM
22,COc1ccc(C(=O)/C=C/Nc2ccc([N+](=O)[O-])cc2C)cc1OC,"inconclusive: 0.849 µM [inhibitor, partial curve, poor fit]"
23,CC1CCN(C(=O)c2cc(-c3ccc(Cl)cc3)on2)CC1,active: 6.01 µM
24,NC(=O)COC(=O)c1ccc2noc(-c3ccccc3)c2c1,inactive
25,O=c1cc(O)c2sc(Nc3ccc(F)cc3)nc2[nH]1,"inconclusive: 23.9 µM [inhibitor, partial curve, poor fit]"

row,SMILES,Potency
1,CCOC(=O)c1ccc2c(c1)sc(=NC(=O)c1ccco1)n2CCOC,inactive
2,CC1CCN(C2=NC(=O)/C(=C/c3ccccc3F)S2)CC1,active: 3.38 µM
3,COc1ccc(-c2cc(C(=O)Nc3ccccc3)on2)cc1,active: 0.536 µM
4,COc1ccccc1CN(C)C(=O)C(NC(=O)Cc1cccc2ccccc12)C(C)C (stereo not drawn),inactive
5,COc1ccc(S(=O)(=O)Nc2cc(-c3cn4ccccc4n3)ccc2C)cc1,"inconclusive: 37.9 µM [inhibitor, partial curve, poor fit]"
6,CC(=O)NC(Cc1ccc(C)cc1)C(=O)NC1CCN(S(=O)(=O)c2ccccc2)CC1 (stereo not drawn),inactive
7,O=C(CC(Sc1ccc(Br)cc1)C(=O)O)c1ccc(Br)cc1 (stereo not drawn),"inconclusive: 33.8 µM [inhibitor, partial curve, poor fit]"
8,O=C(Nc1ccncc1)c1ccc2ccccc2c1,active: 16.9 µM
9,O=C(CN1CCOCC1)Nc1ncc(Cc2cccc(Cl)c2Cl)s1,inactive
10,COc1ccc(OCc2nnc(-c3ccccc3)o2)cc1,"inconclusive: 23.9 µM [inhibitor, single point]"
11,Clc1ccccc1-c1ccc(/C=N/n2cnnc2)o1,"inconclusive: 21.3 µM [inhibitor, partial curve, poor fit]"
12,Cc1cccc(Oc2c([N+](=O)[O-])c(=O)n(C)c3ccccc23)c1,inactive
13,Cn1c(SCC(=O)NCC2CCCO2)ncc(C(=O)Nc2ccccc2)c1=O (stereo not drawn),"inconclusive: 21.3 µM [inhibitor, single point]"
14,Cc1ccc(SCC(=O)c2cc(C)c(OC(=S)N(C)C)c(C)c2)cc1,active: 8.49 µM
15,O=c1[nH]c(-c2ccccn2)nc2sc(-c3ccccc3)cc12,active: 2.13 µM
16,COc1ccc(NC(=O)c2cn(-c3ccccc3)nc2SC)cc1,active: 15.1 µM
17,CC1CCCC(C)N1C(=O)CSc1ccc(-c2ccc3c(c2)OCCO3)nn1 (stereo not drawn),active: 13.5 µM
18,CCN(CC)CCNC(=O)c1ccc2c(c1NCCO)C(=O)c1ccccc1C2=O,"inconclusive: 23.9 µM [inhibitor, partial curve, poor fit]"
19,CC#CCOC(=O)c1c(C)nc2sc3c(c2c1N)CCC(O)C3 (stereo not drawn),"inconclusive: 3.38 µM [inhibitor, full curve]"
20,O=C(CSc1nccn(-c2ccc3c(c2)OCCO3)c1=O)Nc1ccccc1,"inconclusive: 23.9 µM [inhibitor, partial curve, poor fit]"
21,COc1cccc(NC(=O)C2CCN(S(=O)(=O)c3ccc4c(c3)N(C(C)=O)CCO4)CC2)c1,inactive
22,C/C(=N\NC(=S)NC1CCCCC1)c1ccc(O)cc1,"inconclusive: 23.9 µM [inhibitor, partial curve, poor fit]"
23,CCOc1cccc(C(=O)NC(=S)Nc2ccc(N3CCN(CC)CC3)cc2)c1,"inconclusive: 19 µM [inhibitor, partial curve]"
24,COC(CNS(=O)(=O)c1cc2c3c(c1)CCN3C(=O)CC2)OC,inactive
25,Cc1ccc(NC(=S)NNc2ncc(C(F)(F)F)cc2Cl)c(C)c1,inactive

row,SMILES,Potency
1,CCOC(=O)c1ccccc1NC(=O)CCc1c(C)nc2ncnn2c1C,inactive
2,c1ccc(Nc2ccc(-n3ccnc3)nn2)cc1,"inconclusive: 37.9 µM [inhibitor, single point]"
3,CC(=O)c1cccc(OCc2cc(C(=O)N(C)Cc3cnccn3)no2)c1,"inconclusive: 4.78 µM [inhibitor, partial curve, poor fit]"
4,O=C(c1cc(-c2ccc(F)cc2)on1)N1CCCc2ccccc21,active: 10.7 µM
5,COc1cc(/C=N/NC(=O)CN2CCCCC2)ccc1OCc1ccc(Br)cc1,active: 15.1 µM
6,CCn1nc(-c2ccccc2)c(-c2ccccc2)c(C(=O)OCCOC)c1=O,inactive
7,CC1(C)Cc2cccc(Oc3cc(NN4CCCCC4)c([N+](=O)[O-])cc3[N+](=O)[O-])c2O1,inactive
8,Cc1ccc(S(=O)(=O)N2CCOCC2)cc1NC(=O)CSc1nccn1C,"inconclusive: 6.01 µM [inhibitor, single point]"
9,O=C(NC1CCCCC1)c1cc(-c2ccccc2Cl)on1,"inconclusive: 6.01 µM [inhibitor, full curve]"
10,Cc1nn(C)c2c1c(C(F)(F)F)cc(=O)n2CC(=O)NCc1ccccc1Cl,inactive
11,Nc1nc(SCC(=O)NCCO)nc2sc3c(c12)CCCC3,active: 16.9 µM
12,COC(C[C@@H]1O[C@@H]1[C@@H](O)COCc1ccccc1)OC,inactive
13,Cc1c(C(=O)c2ccc(N(C)C)cc2)c2ccccn2c1CCC#N,"inconclusive: 37.9 µM [inhibitor, single point]"
14,Cc1onc(-c2ccccc2)c1C(=O)Nc1sc2c(c1C#N)CCC(C)C2 (stereo not drawn),"inconclusive: 37.9 µM [inhibitor, single point]"
15,Cc1ccc(C(=O)CC2(O)C(=O)N(C)c3ccccc32)s1 (stereo not drawn),"inconclusive: 37.9 µM [inhibitor, partial curve, poor fit]"
16,O=S(=O)(Nc1ccc(-c2ccc(N3CCCC3)nn2)cc1)c1ccc(Br)cc1,"inconclusive: 21.3 µM [inhibitor, partial curve, poor fit]"
17,COc1cc(OC)cc(C(=O)NNC(=S)NCc2ccco2)c1,inactive
18,CCSc1nnc(-c2ccc(Cl)cc2Cl)o1,active: 9.53 µM
19,Fc1ccc(Nc2ncnc3sccc23)cc1,"inconclusive: 37.9 µM [inhibitor, single point]"
20,CCOC(=O)N1CCN(C(=O)c2ccccc2NC(C)=O)CC1,"inconclusive: 26.9 µM [inhibitor, partial curve]"
21,C/C(=N/Nc1nc(C)cc(-c2ccccc2)n1)c1ccco1,active: 15.1 µM
22,COc1ccc(C(=O)NC2CCCCCC2)cc1S(=O)(=O)Nc1ccc(Br)cc1,"inconclusive: 23.9 µM [inhibitor, partial curve, poor fit]"
23,O=S(=O)(Nc1ncccn1)c1ccc(NS(=O)(=O)c2cccc(Cl)c2Cl)cc1,"inconclusive: 37.9 µM [inhibitor, partial curve, poor fit]"
